{"source": "patent US20040152871A1", "about": "(ST MARIANNA UNIVERSITY SCHOOL OF MEDICINE, published 2004)", "molecular_target": "T1, [35S]-labeled HA-Synoviolin-HAHA fusion protein (human, UniProt Q86TM6, [35S]-labeled by in vitro translation)", "T1 construct": "Made by in vitro translation (TNT-coupled Translation System) from pcDNA3-HA-synoviolin-HAHA and used as probe; also called [35S]HA-Synoviolin-HAHA; not shown: influenza hemagglutinin (HA)-tag, one copy at the N-terminus; two molecules of influenza hemagglutinin (HA)-tag at the C-terminus", "T1 sequence (Q86TM6 whole entry E545G, the tested form may be a part)": "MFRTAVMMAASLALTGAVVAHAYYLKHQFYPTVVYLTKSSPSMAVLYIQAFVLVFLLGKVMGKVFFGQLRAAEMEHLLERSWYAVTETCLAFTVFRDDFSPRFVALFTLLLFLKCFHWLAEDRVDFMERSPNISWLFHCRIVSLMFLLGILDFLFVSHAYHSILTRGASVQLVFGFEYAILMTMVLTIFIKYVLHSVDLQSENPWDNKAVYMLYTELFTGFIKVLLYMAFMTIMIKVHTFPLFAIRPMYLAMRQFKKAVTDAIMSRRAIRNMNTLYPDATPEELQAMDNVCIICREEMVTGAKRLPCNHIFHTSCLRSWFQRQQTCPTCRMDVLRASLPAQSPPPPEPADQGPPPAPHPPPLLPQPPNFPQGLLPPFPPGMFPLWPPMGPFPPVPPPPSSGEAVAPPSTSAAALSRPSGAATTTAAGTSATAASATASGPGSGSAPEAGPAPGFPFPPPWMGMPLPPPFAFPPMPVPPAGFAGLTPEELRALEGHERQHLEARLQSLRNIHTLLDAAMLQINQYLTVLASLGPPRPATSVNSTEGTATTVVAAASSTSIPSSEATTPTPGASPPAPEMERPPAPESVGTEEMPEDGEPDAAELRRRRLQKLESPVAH", "experiment": "far-western: GST on nylon membrane, probed with [35S]HA-Synoviolin-HAHA"}
{"binder": "GST (other, also called glutathione S-transferase) not shown", "values": [{"measurement": "binding result", "value": "no binding (tested: GST (1 µg))"}]}
